# The supplement of paper PMC8728848
# The list shows a part of the results.
# B1: LecRKVI.2 (protein)
# chain: RTTTNFAFRGFNGNQSKIRIEGAAMIKPDGLLRLTDRKSNVTGTAFYHKPVRLLNRNSTNVTIRSFSTSFVFVIIPSSSSNKGFGFTFTLSPTPYRLNAGSAQYLGVFNKENNGDPRNHVFAVEFDTVQGSRDDNTDRIGNDIGLNYNSRTSDLQEPVVYYNNDDHNKKEDFQLESGNPIQALLEYDGATQMLNVTVYPARLGFKPTKPLISQHVPKLLEIVQEEMYVGFTASTGKGQSSAHYVMGWSFSSGGERPIADVLILSELPPPPPNKAKKEGLNS
# Assays:
# Assay in all cases: glycan array binding signal (z-score within array); higher = stronger binding
# Conditions in all cases: glycan notation: IUPAC condensed, linker removed
# Fuc(a1-2)Gal = target: Fuc(a1-2)Gal
# How it was run: (§1)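 Glycan array data were curated from 3228 arrays in the Consortium for Functional Glycomics database and kept only where the protein sequence was available. Glycan names were converted to IUPAC-condensed notation, and columns mapping to the same glycan were averaged. The binding signal is a within-array Z-score, averaged across arrays of the same protein sequence at different concentrations or buffers and across linkers. Negative Z-scores can be read as non-binding.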
# Fuc(a1-2)Gal(b1-3)GalNAc = target: Fuc(a1-2)Gal(b1-3)GalNAc
# How it was run: as §1
# [1] = target: Fuc(a1-2)Gal(b1-3)GalNAc(a1-3)[Fuc(a1-2)]Gal(b1-4)Glc
# How it was run: as §1
# [2] = target: Fuc(a1-2)Gal(b1-3)GalNAc(a1-3)[Fuc(a1-2)]Gal(b1-4)GlcNAc
# How it was run: as §1
# [3] = target: Fuc(a1-2)Gal(b1-3)GalNAc(b1-3)Gal
# How it was run: as §1
# [4] = target: Fuc(a1-2)Gal(b1-3)GalNAc(b1-3)Gal(a1-4)Gal(b1-4)Glc
# How it was run: as §1
# [5] = target: Fuc(a1-2)Gal(b1-3)GalNAc(b1-4)[Neu5Ac(a2-3)]Gal(b1-4)Glc
# How it was run: as §1
# Fuc(a1-2)Gal(b1-3)GlcNAc = target: Fuc(a1-2)Gal(b1-3)GlcNAc
# How it was run: as §1
# [6] = target: Fuc(a1-2)Gal(b1-3)GlcNAc(b1-2)Man(a1-3)[Fuc(a1-2)Gal(b1-3)GlcNAc(b1-2)Man(a1-6)]Man(b1-4)GlcNAc(b1-4)GlcNAc
# How it was run: as §1
# [7] = target: Fuc(a1-2)Gal(b1-3)GlcNAc(b1-2)Man(a1-3)[Fuc(a1-2)Gal(b1-3)GlcNAc(b1-2)Man(a1-6)]Man(b1-4)GlcNAc(b1-4)[Fuc(a1-6)]GlcNAc
# How it was run: as §1
# [8] = target: Fuc(a1-2)Gal(b1-3)GlcNAc(b1-3)Gal(b1-4)Glc
# How it was run: as §1
# [9] = target: Fuc(a1-2)Gal(b1-3)GlcNAc(b1-3)GalNAc
# How it was run: as §1
# [10] = target: Fuc(a1-2)Gal(b1-3)GlcNAc(b1-3)[Fuc(a1-2)Gal(b1-3)GlcNAc(b1-6)]GalNAc
# How it was run: as §1
# [11] = target: Fuc(a1-2)Gal(b1-3)GlcNAc(b1-3)[Gal(b1-4)GlcNAc(b1-6)]Gal(b1-4)Glc
# How it was run: as §1
# [12] = target: Fuc(a1-2)Gal(b1-3)GlcNAc(b1-3)[Neu5Ac(a2-6)Gal(b1-4)GlcNAc(b1-6)]Gal(b1-4)Glc
# How it was run: as §1
# [13] = target: Fuc(a1-2)Gal(b1-3)GlcNAc6S
# How it was run: as §1
# [14] = target: Fuc(a1-2)Gal(b1-3)[Fuc(a1-4)]GlcNAc
# How it was run: as §1
# [15] = target: Fuc(a1-2)Gal(b1-3)[Fuc(a1-4)]GlcNAc(b1-2)Man(a1-3)[Fuc(a1-2)Gal(b1-3)[Fuc(a1-4)]GlcNAc(b1-2)Man(a1-3)]Man(b1-4)GlcNAc(b1-4)GlcNAc
# How it was run: as §1
# [16] = target: Fuc(a1-2)Gal(b1-3)[Fuc(a1-4)]GlcNAc(b1-2)Man(a1-3)[Fuc(a1-2)Gal(b1-3)[Fuc(a1-4)]GlcNAc(b1-2)Man(a1-6)]Man(b1-4)GlcNAc(b1-4)[Fuc(a1-6)]GlcNAc(b1-4)[Fuc(a1-6)]GlcNAc
# How it was run: as §1
# [17] = target: Fuc(a1-2)Gal(b1-3)[Fuc(a1-4)]GlcNAc(b1-3)[Fuc(a1-3)[Gal(b1-4)]GlcNAc(b1-6)]Gal(b1-4)Glc
# How it was run: as §1
# [18] = target: Fuc(a1-2)Gal(b1-3)[Fuc(a1-4)]GlcNAc(b1-3)[Gal(b1-4)GlcNAc(b1-6)]Gal(b1-4)Glc
# How it was run: as §1
# Fuc(a1-2)Gal(b1-4)Glc = target: Fuc(a1-2)Gal(b1-4)Glc
# How it was run: as §1
# Fuc(a1-2)Gal(b1-4)Glc6S = target: Fuc(a1-2)Gal(b1-4)Glc6S
# How it was run: as §1
# Fuc(a1-2)Gal(b1-4)GlcNAc = target: Fuc(a1-2)Gal(b1-4)GlcNAc
# How it was run: as §1
# [19] = target: Fuc(a1-2)Gal(b1-4)GlcNAc(b1-2)Man
# How it was run: as §1
# [20] = target: Fuc(a1-2)Gal(b1-4)GlcNAc(b1-2)Man(a1-3)[Fuc(a1-2)Gal(b1-4)GlcNAc(b1-2)Man(a1-6)]Man(b1-4)GlcNAc(b1-4)GlcNAc
# How it was run: as §1
# [21] = target: Fuc(a1-2)Gal(b1-4)GlcNAc(b1-2)Man(a1-3)[Fuc(a1-2)Gal(b1-4)GlcNAc(b1-2)Man(a1-6)]Man(b1-4)GlcNAc(b1-4)[Fuc(a1-6)]GlcNAc
# How it was run: as §1
# [22] = target: Fuc(a1-2)Gal(b1-4)GlcNAc(b1-2)[Fuc(a1-2)Gal(b1-4)GlcNAc(b1-4)]Man(a1-3)[Fuc(a1-2)Gal(b1-4)GlcNAc(b1-2)Man(a1-6)]Man(b1-4)GlcNAc(b1-4)GlcNAc
# How it was run: as §1
# [23] = target: Fuc(a1-2)Gal(b1-4)GlcNAc(b1-3)Gal(b1-4)GlcNAc
# How it was run: as §1
# [24] = target: Fuc(a1-2)Gal(b1-4)GlcNAc(b1-3)Gal(b1-4)GlcNAc(b1-2)Man(a1-3)[Fuc(a1-2)Gal(b1-4)GlcNAc(b1-3)Gal(b1-4)GlcNAc(b1-2)Man(a1-6)]Man(b1-4)GlcNAc(b1-4)GlcNAc
# How it was run: as §1
binder,measurement,setting,value
B1,glycan array binding signal (z-score),Fuc(a1-2)Gal,-0.333
same,glycan array binding signal (z-score),Fuc(a1-2)Gal(b1-3)GalNAc,-0.345
same,glycan array binding signal (z-score),[1],-0.453
same,glycan array binding signal (z-score),[2],-0.334
same,glycan array binding signal (z-score),[3],-0.291
same,glycan array binding signal (z-score),[4],-0.133
same,glycan array binding signal (z-score),[5],-0.34
same,glycan array binding signal (z-score),Fuc(a1-2)Gal(b1-3)GlcNAc,-0.368
same,glycan array binding signal (z-score),[6],2.66
same,glycan array binding signal (z-score),[7],-0.373
same,glycan array binding signal (z-score),[8],-0.378
same,glycan array binding signal (z-score),[9],-0.385
same,glycan array binding signal (z-score),[10],0.031
same,glycan array binding signal (z-score),[11],-0.237
same,glycan array binding signal (z-score),[12],-0.471
same,glycan array binding signal (z-score),[13],-0.436
same,glycan array binding signal (z-score),[14],-0.312
same,glycan array binding signal (z-score),[15],-0.325
same,glycan array binding signal (z-score),[16],-0.21
same,glycan array binding signal (z-score),[17],-0.439
same,glycan array binding signal (z-score),[18],-0.205
same,glycan array binding signal (z-score),Fuc(a1-2)Gal(b1-4)Glc,-0.455
same,glycan array binding signal (z-score),Fuc(a1-2)Gal(b1-4)Glc6S,-0.326
same,glycan array binding signal (z-score),Fuc(a1-2)Gal(b1-4)GlcNAc,-0.313
same,glycan array binding signal (z-score),[19],-0.323
same,glycan array binding signal (z-score),[20],3.27
same,glycan array binding signal (z-score),[21],-0.27
same,glycan array binding signal (z-score),[22],-0.369
same,glycan array binding signal (z-score),[23],-0.395
same,glycan array binding signal (z-score),[24],1.34
